The whole screen tested about 52,000 compounds, of which about 1,700 (3.3%) were called active. Rule as the data show it: active = survival mostly below about 52% (no sharp cut-off); inactive = mostly above about 56%. The list shows a part of the results.

The assay deals with Wild type. The assay is described as follows: S. aureus survival, RN4220 and DeltatarO strains – OD600, teichoic acid synthesis inhibitors, primary screen (AID 463173). To be noted: S. aureus RN4220 wild type/DeltatarO growth, OD600, 18 h, stronger effect = lower value, screened at 18.75 µg/mL (by protocol).
For the molecule `Cc1cc(C)c2c(c1)c(C)cc1nnc(SCc3ccccc3C#N)n12`, the survival is inactive: 67%. For `COc1ccc(NC(=O)CSc2nc(-c3cccc(C)c3)[nH]c2-c2ccccc2)cc1OC`, the survival was inactive: 67%. As for `Cc1ccc(C)c(-c2ccc(=O)n(Cc3c(F)cccc3Cl)n2)c1`, the survival was inactive: 108%. As for `CCSc1ncc(Cl)c(C(=O)Nc2sc3c(c2C(=O)NCCCOC)CCCC3)n1`, the figure is inactive: 120%. Next, `CC(=O)N1CCc2c(sc3c2c(=O)n(CCc2ccccc2)c(=O)n3Cc2ccccc2C)C1`: inactive: 74%; `CC(=O)Nc1n[nH]c(-c2ccc(C)cc2)c1C`: inactive: 108%; `CC(C)Sc1ncc(Cl)c(C(=O)Nc2ccc(S(=O)(=O)N3CCCCC3)cc2)n1`: inactive: 78%. As for `CCN(CC)S(=O)(=O)c1ccc2c(c1)c(=O)c(C(=O)N1CCN(c3cc(Cl)ccc3C)CC1)cn2C`, the figure is inactive: 83%; as for `CN(C)C(=O)c1ccc(N(C)S(=O)(=O)c2ccccc2)cc1`, inactive: 113%; as for `CC(C)c1noc(-c2ccccc2OCC(=O)Nc2cccc([N+](=O)[O-])c2)n1`, inactive: 80%.

Take `CCOc1ccc(Nc2c(S(=O)(=O)c3ccccc3)cnc3ccc(F)cc23)cc1`: the survival was inactive: 61%. Next, `O=C(Oc1ccccc1F)c1nc(SCc2ccc(F)cc2)ncc1Cl`: inactive: 88%; `COc1cc(C2CC(=O)Oc3c2c(=O)[nH]c2ccccc32)cc(OC)c1OC` (stereo unspecified): inactive: 72%; `Cc1ccc(-c2cc3nc(-c4ccccc4)cc(C(F)(F)F)n3n2)cc1`: inactive: 80%. Next, `CCOc1ccc(-c2c(C)nn3c(C)c(C(=O)Nc4cc(C)cc(C)c4)cnc23)cc1OCC`: inactive: 133%; `CC(=O)N1CCc2cc(Br)cc(S(=O)(=O)CCC(=O)N3CCN(c4ccccc4Cl)CC3)c21`: inactive: 84%.

For `COc1ccc(-c2nc3scc(CCNS(=O)(=O)c4ccc5c(c4)OCCO5)n3n2)cc1`, the survival was inactive: 56%. As for `Cc1ccc(CN(C(=O)COc2cc(C)c(Cl)c(C)c2)c2ccccn2)o1`, the figure is inactive: 78%. As for `Cc1[nH]c2ccccc2c1Cc1nnc(SCC(N)=O)n1Cc1ccco1`, the figure is inactive: 107%; as for `Cc1ccc(S(=O)(=O)c2c(O)cc(C)c(NS(=O)(=O)c3ccc(Cl)cc3)c2C)cc1`, inactive: 105%. As for `COc1ccccc1N1CCN(S(=O)(=O)c2c(C)nc3sccn3c2=O)CC1`, the figure is inactive: 89%; as for `Cc1cc(C)c2sc(N3CCN(C(=O)c4ccc(N(C)C)cc4)CC3)nc2c1`, inactive: 136%. As to `CC(C)c1nn2c(=O)cc(COC(=O)c3ccco3)nc2s1`, the survival is inactive: 68%.

Take `COc1ccccc1C(=O)Nc1ccc(C(=O)OCc2cc(=O)n3nc(C4CC4)sc3n2)cc1`: the survival was inactive: 71%. As for `COc1ccc(N2C(=O)CSC23C(=O)N(CC(=O)NCCc2ccccc2)c2ccccc23)cc1` (stereo unspecified), the figure is inactive: 71%. Next, `O=C(CSc1nc(=O)[nH]c2c1CCCC2)NCc1ccccc1`: inactive: 69%; `Cc1c(C)c2cc3c(c(C)c2oc1=O)OCN(CCc1ccc(F)cc1)C3`: inactive: 83%; `Cc1nn2c(C)c(C(=O)NC(C)(C)C)cnc2c1-c1ccc(F)cc1`: inactive: 120%. As for `Cc1ccc(N2CC(NC(=O)c3cc4ccccc4o3)CC2=O)cc1` (stereo unspecified), the figure is inactive: 124%; as for `CCc1ccc(Cn2c(CNS(=O)(=O)c3ccc(C)c(C)c3)nc3cccnc32)cc1`, inactive: 71%; as for `COc1ccc(NC(=O)Cn2c(=O)n(Cc3ccccc3)c(=O)c3sc4ccccc4c32)cc1`, inactive: 79%.

In the case of `CCCCNC(=O)c1cc2n(n1)CCCN(Cc1ccc(C)cc1)C2=O`, the survival was active: 0%. Next, `CCOc1ccc(C(=O)Nc2ccc3oc(-c4ccc5ccccc5c4)nc3c2)cc1`: inactive: 81%; `COc1ccc(CNC(=O)CCc2c(C)c3cc4c(C)coc4c(C)c3oc2=O)cc1OC`: inactive: 82%; `CN1CCN(CC(=O)N(c2ccccc2)c2ccc(O)cc2)CC1`: inactive: 90%. Next, `O=C1NCCN1C(=O)NC1CCCCC1`: inactive: 108%; `CCCCN(C)CCNC(=O)c1cc2c(=O)n(C)c3ccccc3c2n1C`: inactive: 86%. As for `Cc1ccc(S(=O)(=O)CC(=O)N2CCN(c3nc4c(F)cccc4s3)CC2)cc1`, the figure is active: -6%; as for `CN1C(=O)c2ccccc2Sc2ccc(NC(=O)c3ccc(C(F)(F)F)cc3)cc21`, inactive: 80%; as for `N#Cc1ccccc1NS(=O)(=O)c1ccc(N2CCCCS2(=O)=O)cc1`, inactive: 80%.

Consider `CCCc1nn2c(=O)cc(COC(=O)c3ccc(NC(=O)COc4ccccc4)cc3)nc2s1`, for which the survival was inactive: 83%.

For the molecule `CCn1c2c(c(=O)n3ncc(C(=O)N4CCN(c5ccc(Cl)cc5)CC4)c13)CN(Cc1ccc(OC)cc1)CC2`, the survival is inactive: 75%. Turning to `CCC(Oc1ccc(F)cc1)C(=O)Nc1c(C(=O)c2ccc(C)cc2)oc2ccccc12` (stereo unspecified), the survival was inactive: 76%.

On to `CCn1cc(C(=O)N2CCN(c3ccccc3)CC2)c(=O)c2cc(S(=O)(=O)N3CCOCC3)ccc21`, for which the survival is inactive: 82%. Next, `COc1ccc(C(=O)CSc2nnc(-c3ccoc3C)n2CC(C)C)cc1`: inactive: 102%.

Consider `COc1ccc(-c2nc3scc(CCNS(=O)(=O)c4ccc(F)cc4C)n3n2)cc1`, for which the survival is inactive: 82%.

Regarding `c1cnc2c(c1)NC1(CCCCC1)N2`, the survival was inactive: 97%. Next, `COC(=O)c1cc2oc3ccccc3c2n1Cc1ccc(Cl)cc1`: inactive: 21%. As for `O=C1CSC2(C(=O)N(Cc3cccc(F)c3)c3ccccc32)N1c1cccc(C(F)(F)F)c1` (stereo unspecified), the survival was inactive: 83%. As for `CC(C)COc1ccc(C(=O)N2CCN(CCc3ccncc3)CC2)cc1`, the figure is inactive: 88%; as for `CCN(CC)CCNC(=O)c1cc2c(=O)n(C)c3cc(Cl)ccc3c2s1`, inactive: 88%; as for `CCOC(=O)c1[nH]c(C)c(CCC(=O)NCc2ccc(CC)cc2)c1C`, inactive: 83%. Next, `COc1cccc(CN2c3ccccc3-c3nc(SCC(=O)Nc4ccccc4Cl)ncc3S2(=O)=O)c1`: inactive: 66%; `Cc1ccc(-c2ccc(=O)n(CCC(=O)NCCc3ccccc3)n2)cc1`: inactive: 92%.

Turning to `COc1ccc(Nc2cc(C(=O)NCCCN3CCN(c4ccccc4F)CC3)c3ccccc3n2)c(OC)c1`, the survival was inactive: 46%. For `COc1ccc(NC(=O)c2ccc3nc(C(C)C)oc3c2)cc1OC`, the survival is inactive: 75%.

These data come from PubChem BioAssay AID463173 (ICCB-Longwood Screening Facility, Harvard Medical School, 2010).
